Measurements: the supplement of paper PMC8728848
This is one part of the list.

Columns and labels:
Experiment in all cases: glycan array binding signal (z-score within array); higher = stronger binding
Conditions in all cases: glycan notation: IUPAC condensed, linker removed
[1] = molecular target: Neu5Ac(a2-6)GlcNAc
Outline: (§1)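 Negative Z-scores can be read as non-binding. The Z-score is calculated within each array and then averaged across arrays of one protein sequence at different concentrations or buffers and across linkers. Arrays, 3228 in all, were curated from the Consortium for Functional Glycomics database and kept only where the protein sequence was available.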

[2] = molecular target: Neu5Ac(a2-6)GlcNAc(b1-4)GlcNAc
Outline: as §1

[3] = molecular target: Neu5Ac(a2-6)GlcNAc(b1-4)GlcNAc(b1-4)GlcNAc
Outline: as §1

[4] = molecular target: Neu5Ac(a2-6)GlcNAc6S
Outline: as §1

[5] = molecular target: Neu5Ac(a2-8)Neu5Ac
Outline: as §1

[6] = molecular target: Neu5Ac(a2-8)Neu5Ac(a2-3)Gal
Outline: as §1

[7] = molecular target: Neu5Ac(a2-8)Neu5Ac(a2-3)Gal(b1-3)GalNAc(b1-4)[Neu5Ac(a2-3)]Gal(b1-4)Glc
Outline: as §1

[8] = molecular target: Neu5Ac(a2-8)Neu5Ac(a2-3)Gal(b1-3)GalNAc(b1-4)[Neu5Ac(a2-8)Neu5Ac(a2-3)]Gal(b1-4)Glc
Outline: as §1

[9] = molecular target: Neu5Ac(a2-8)Neu5Ac(a2-3)Gal(b1-4)Glc
Outline: as §1

[10] = molecular target: Neu5Ac(a2-8)Neu5Ac(a2-3)Gal(b1-4)GlcNAc
Outline: as §1

[11] = molecular target: Neu5Ac(a2-8)Neu5Ac(a2-3)[Gal(b1-3)GalNAc(b1-4)]Gal(b1-4)Glc
Outline: as §1

[12] = molecular target: Neu5Ac(a2-8)Neu5Ac(a2-3)[GalNAc(b1-4)]Gal(b1-4)Glc
Outline: as §1

[13] = molecular target: Neu5Ac(a2-8)Neu5Ac(a2-6)Gal
Outline: as §1

[14] = molecular target: Neu5Ac(a2-8)Neu5Ac(a2-6)Glc
Outline: as §1

[15] = molecular target: Neu5Ac(a2-8)Neu5Ac(a2-8)Neu5Ac
Outline: as §1

[16] = molecular target: Neu5Ac(a2-8)Neu5Ac(a2-8)Neu5Ac(a2-3)Gal(b1-4)Glc
Outline: as §1

[17] = molecular target: Neu5Ac(a2-8)Neu5Ac(a2-8)Neu5Ac(a2-3)[Gal(b1-3)GalNAc(b1-4)]Gal(b1-4)Glc
Outline: as §1

[18] = molecular target: Neu5Ac(a2-8)Neu5Ac(a2-8)Neu5Ac(a2-3)[GalNAc(b1-4)]Gal(b1-4)Glc
Outline: as §1

[19] = molecular target: Neu5Ac(a2-8)Neu5Ac(a2-8)Neu5Ac(a2-6)Gal
Outline: as §1

[20] = molecular target: Neu5Ac(a2-8)Neu5Ac(a2-8)Neu5Ac(a2-8)Neu5Ac
Outline: as §1

[21] = molecular target: Neu5Ac(a2-8)Neu5Ac(a2-8)Neu5Ac(a2-8)Neu5Ac(a2-3)[GalNAc(b1-4)]Gal(b1-4)Glc
Outline: as §1

[22] = molecular target: Neu5Ac(a2-8)Neu5Ac(a2-8)Neu5Ac(a2-8)Neu5Ac(a2-8)Neu5Ac
Outline: as §1

[23] = molecular target: Neu5Ac(a2-8)Neu5Ac(a2-8)Neu5Ac(a2-8)Neu5Ac(a2-8)Neu5Ac(a2-8)Neu5Ac
Outline: as §1

[24] = molecular target: Neu5Ac(a2-8)Neu5Ac(a2-8)Neu5Ac(a2-8)Neu5Ac(a2-8)Neu5Ac(a2-8)Neu5Ac(a2-8)Neu5Ac
Outline: as §1

[25] = molecular target: Neu5Ac(a2-8)Neu5Ac(a2-8)Neu5Ac(a2-8)Neu5Ac(a2-8)Neu5Ac(a2-8)Neu5Ac(a2-8)Neu5Ac(a2-8)Neu5Ac
Outline: as §1

[26] = molecular target: Neu5Ac(a2-8)Neu5Ac(a2-8)Neu5Ac(a2-8)Neu5Ac(a2-8)Neu5Ac(a2-8)Neu5Ac(a2-8)Neu5Ac(a2-8)Neu5Ac(a2-8)Neu5Ac
Outline: as §1

[27] = molecular target: Neu5Ac(a2-8)Neu5Ac(a2-8)Neu5Ac(a2-8)Neu5Ac(a2-8)Neu5Ac(a2-8)Neu5Ac(a2-8)Neu5Ac(a2-8)Neu5Ac(a2-8)Neu5Ac(a2-8)Neu5Ac
Outline: as §1

[28] = molecular target: Neu5Ac(a2-8)Neu5Gc(a2-3)Gal(b1-4)GlcNAc
Outline: as §1

[29] = molecular target: Neu5Ac(a2-9)Neu5Ac(a2-3)Gal(b1-4)Glc
Outline: as §1

[30] = molecular target: Neu5Ac(b1-6)GalNAc
Outline: as §1

[31] = molecular target: Neu5Ac(b2-3)Gal(b1-4)Glc
Outline: as §1

[32] = molecular target: Neu5Ac(b2-6)Gal(b1-4)Glc
Outline: as §1

[33] = molecular target: Neu5Ac(b2-6)Gal(b1-4)GlcNAc
Outline: as §1

[34] = molecular target: Neu5Ac(b2-6)GalNAc
Outline: as §1

[35] = molecular target: Neu5Ac9Ac(a2-3)Gal(b1-3)GlcNAc
Outline: as §1

[36] = molecular target: Neu5Ac9Ac(a2-3)Gal(b1-3)[Fuc(a1-4)]GlcNAc
Outline: as §1

[37] = molecular target: Neu5Ac9Ac(a2-3)Gal(b1-4)GlcNAc
Outline: as §1

[38] = molecular target: Neu5Ac9Ac(a2-3)Gal(b1-4)[Fuc(a1-3)]GlcNAc
Outline: as §1

[39] = molecular target: Neu5Ac9Ac(a2-3)Gal(b1-4)[Fuc(a1-3)]GlcNAc(b1-3)Gal
Outline: as §1

[40] = molecular target: Neu5Ac9Ac(a2-6)Gal(b1-4)GlcNAc
Outline: as §1

[41] = molecular target: Neu5Ac9Me(a2-3)Gal(b1-4)Glc
Outline: as §1

[42] = molecular target: Neu5Gc(a2-3)Gal(b1-3)GlcNAc
Outline: as §1

[43] = molecular target: Neu5Gc(a2-3)Gal(b1-3)GlcNAc(b1-3)Gal(b1-4)Glc
Outline: as §1

[44] = molecular target: Neu5Gc(a2-3)Gal(b1-3)[Fuc(a1-4)]GlcNAc
Outline: as §1

[45] = molecular target: Neu5Gc(a2-3)Gal(b1-4)Glc
Outline: as §1

[46] = molecular target: Neu5Gc(a2-3)Gal(b1-4)GlcNAc
Outline: as §1

[47] = molecular target: Neu5Gc(a2-3)Gal(b1-4)GlcNAc(b1-3)Gal(b1-4)GlcNAc(b1-2)Man(a1-3)[Neu5Gc(a2-3)Gal(b1-4)GlcNAc(b1-3)Gal(b1-4)GlcNAc(b1-2)Man(a1-6)]Man(b1-4)GlcNAc(b1-4)GlcNAc
Outline: as §1

[48] = molecular target: Neu5Gc(a2-3)Gal(b1-4)[Fuc(a1-3)]GlcNAc
Outline: as §1

[49] = molecular target: Neu5Gc(a2-3)Gal(b1-4)[Fuc(a1-3)]GlcNAc(b1-3)Gal
Outline: as §1

[50] = molecular target: Neu5Gc(a2-6)Gal(b1-3)GlcNAc(b1-3)Gal(b1-4)Glc
Outline: as §1

[51] = molecular target: Neu5Gc(a2-6)Gal(b1-4)GlcNAc
Outline: as §1

[52] = molecular target: Neu5Gc(a2-6)Gal(b1-4)GlcNAc(b1-2)Man(a1-3)[Neu5Gc(a2-6)Gal(b1-4)GlcNAc(b1-2)Man(a1-6)]Man(b1-4)GlcNAc(b1-4)GlcNAc
Outline: as §1

[53] = molecular target: Neu5Gc(a2-6)GalNAc
Outline: as §1

[54] = molecular target: Neu5Gc(a2-8)Neu5Ac(a2-3)Gal(b1-4)GlcNAc
Outline: as §1

[55] = molecular target: Neu5Gc(a2-8)Neu5Gc(a2-3)Gal(b1-4)GlcNAc
Outline: as §1

[56] = molecular target: Neu5Gc(a2-8)Neu5Gc(a2-3)Gal(b1-4)GlcNAc(b1-3)Gal(b1-4)GlcNAc
Outline: as §1

[57] = molecular target: Neu5Gc(a2-8)Neu5Gc(a2-6)Gal(b1-4)GlcNAc
Outline: as §1

[58] = molecular target: Neu5Gc(b2-6)Gal(b1-4)GlcNAc
Outline: as §1

[59] = molecular target: Xyl(a1-6)Glc(b1-4)[Xyl(a1-6)]Glc(b1-4)[Xyl(a1-6)]Glc(b1-4)Glc
Outline: as §1

[60] = molecular target: Xyl(b1-2)[Man(a1-3)][Man(a1-6)]Man(b1-4)GlcNAc(b1-4)GlcNAc
Outline: as §1

[61] = molecular target: Xyl(b1-2)[Man(a1-3)][Man(a1-6)]Man(b1-4)GlcNAc(b1-4)[Fuc(a1-3)]GlcNAc
Outline: as §1

[62] = molecular target: Xyl(b1-4)Xyl(b1-4)Xyl(b1-4)Xyl(b1-4)Xyl
Outline: as §1

[63] = molecular target: Xyl(b1-4)Xyl(b1-4)Xyl(b1-4)Xyl(b1-4)Xyl(b1-4)Xyl
Outline: as §1

B1: CLEC5A (Homo sapiens), Q9NY25 (protein)
chain: MNWHMIISGLIVVVLKVVGMTLFLLYFPQIFNKSNDGFTTTRSYGTVSQIFGSSSPSPNGFITTRSYGTVCPKDWEFYQARCFFLSTSESSWNESRDFCKGKGSTLAIVNTPEKLKFLQDITDAEKYFIGLIYHREEKRWRWINNSVFNGNVTNQNQNFNCATIGLTKTFDAASCDISYRRICEKNAK
[1]
  glycan array binding signal (z-score): -0.32
[2]
  glycan array binding signal (z-score): -0.319
[3]
  glycan array binding signal (z-score): -0.117
[4]
  glycan array binding signal (z-score): -0.32
[5]
  glycan array binding signal (z-score): 0.123
[6]
  glycan array binding signal (z-score): -0.32
[7]
  glycan array binding signal (z-score): -0.208
[8]
  glycan array binding signal (z-score): -0.18
[9]
  glycan array binding signal (z-score): -0.294
[10]
  glycan array binding signal (z-score): -0.191
[11]
  glycan array binding signal (z-score): -0.133
[12]
  glycan array binding signal (z-score): -0.288
[13]
  glycan array binding signal (z-score): 0.451
[14]
  glycan array binding signal (z-score): -0.32
[15]
  glycan array binding signal (z-score): -0.255
[16]
  glycan array binding signal (z-score): -0.262
[17]
  glycan array binding signal (z-score): -0.191
[18]
  glycan array binding signal (z-score): 0.038
[19]
  glycan array binding signal (z-score): -0.127
[20]
  glycan array binding signal (z-score): -0.32
[21]
  glycan array binding signal (z-score): 0.404
[22]
  glycan array binding signal (z-score): -0.32
[23]
  glycan array binding signal (z-score): -0.32
[24]
  glycan array binding signal (z-score): -0.32
[25]
  glycan array binding signal (z-score): -0.32
[26]
  glycan array binding signal (z-score): -0.32
[27]
  glycan array binding signal (z-score): -0.32
[28]
  glycan array binding signal (z-score): -0.242
[29]
  glycan array binding signal (z-score): -0.32
[30]
  glycan array binding signal (z-score): -0.523
[31]
  glycan array binding signal (z-score): -0.32
[32]
  glycan array binding signal (z-score): -0.32
[33]
  glycan array binding signal (z-score): -0.302
[34]
  glycan array binding signal (z-score): -0.184
[35]
  glycan array binding signal (z-score): -0.191
[36]
  glycan array binding signal (z-score): -0.32
[37]
  glycan array binding signal (z-score): -0.046
[38]
  glycan array binding signal (z-score): -0.32
[39]
  glycan array binding signal (z-score): -0.32
[40]
  glycan array binding signal (z-score): -0.229
[41]
  glycan array binding signal (z-score): -0.32
[42]
  glycan array binding signal (z-score): -0.114
[43]
  glycan array binding signal (z-score): -0.32
[44]
  glycan array binding signal (z-score): -0.194
[45]
  glycan array binding signal (z-score): -0.394
[46]
  glycan array binding signal (z-score): 0.007
[47]
  glycan array binding signal (z-score): -0.052
[48]
  glycan array binding signal (z-score): 0.039
[49]
  glycan array binding signal (z-score): -0.32
[50]
  glycan array binding signal (z-score): 0.066
[51]
  glycan array binding signal (z-score): 0.082
[52]
  glycan array binding signal (z-score): -0.32
[53]
  glycan array binding signal (z-score): -0.284
[54]
  glycan array binding signal (z-score): -0.121
[55]
  glycan array binding signal (z-score): -0.259
[56]
  glycan array binding signal (z-score): -0.123
[57]
  glycan array binding signal (z-score): -0.112
[58]
  glycan array binding signal (z-score): 0.916
[59]
  glycan array binding signal (z-score): 0.451
[60]
  glycan array binding signal (z-score): -0.32
[61]
  glycan array binding signal (z-score): -0.32
[62]
  glycan array binding signal (z-score): -0.32
[63]
  glycan array binding signal (z-score): -0.32
